The supplement of paper PMC4967469
The IC50 comes from the fitted curve, where viability falls to half of the control; a limit (>, <) means that the fit lies beyond the doses tested. AUC is the area under the same curve over the 256-fold range up to the top dose, as a fraction; values near 1 show little effect. For part of these data: The top dose, if marked as inferred, comes from the curve model; the source does not state it. For part of these data: An entry number marks a drug with two screens in the source, which often give different values.

Assays:
Assay in all cases: Viability of human cancer cell lines after 72 h of drug (GDSC screen)
Pyrimethamine = compound: CCc1nc(N)nc(N)c1-c1ccc(Cl)cc1 [Pyrimethamine]; conditions: top dose 20 µM; top dose inferred
Method: (§1)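 Human cancer cell lines in 384-well plates, medium with 10% serum, drug for 72 h over a 256-fold dose range (nine 2-fold or five 4-fold steps up to the top dose). Adherent lines were fixed and stained with the nucleic acid dye Syto60, suspension lines read with resazurin; signal relative to control wells, capped at 0 and 100%. One two-parameter sigmoid per drug and line, fitted in a mixed model over all curves with the slope shared within a line.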

Epothilone B = compound: C/C(=C\c1csc(C)n1)[C@@H]1C[C@@H]2O[C@]2(C)CCC[C@H](C)[C@H](O)[C@@H](C)C(=O)C(C)(C)[C@@H](O)CC(=O)O1 [Epothilone B]; conditions: top dose 0.032 µM; top dose inferred
Method: as §1

PLX4720 = compound: CCCS(=O)(=O)Nc1ccc(F)c(C(=O)c2c[nH]c3ncc(Cl)cc23)c1F [PLX4720]; conditions: top dose 10 µM
Method: as §1

AZD-0530 = compound: CN1CCN(CCOc2cc(OC3CCOCC3)c3c(Nc4c(Cl)ccc5c4OCO5)ncnc3c2)CC1 [AZD-0530]; conditions: top dose 2 µM
Method: as §1

Y-39983 = compound: C[C@@H](N)c1ccc(C(=O)Nc2ccnc3[nH]ccc23)cc1 [Y-39983]; conditions: top dose 20 µM; top dose inferred
Method: as §1

TPCA-1 = compound: NC(=O)Nc1sc(-c2ccc(F)cc2)cc1C(N)=O [TPCA-1]; conditions: top dose 20 µM
Method: as §1

PHA-793887 = compound: CC(C)CC(=O)Nc1n[nH]c2c1CN(C(=O)C1CCN(C)CC1)C2(C)C [PHA-793887]; conditions: top dose 10.24 µM
Method: as §1

[1] = screen: GDSC drug entry 1371, top dose inferred

Row | Cell Line | AUC (Pyrimethamine) | IC50 (Pyrimethamine) [µM] | AUC (Epothilone B) | AUC (PLX4720; screen: GDSC drug entry 1036) | IC50 (PLX4720; screen: GDSC drug entry 1036) [µM] | AUC (PLX4720; [1]) | IC50 (PLX4720; [1]) [µM] | AUC (AZD-0530) | IC50 (AZD-0530) [µM] | AUC (Y-39983) | IC50 (Y-39983) [µM] | AUC (TPCA-1) | IC50 (TPCA-1) [µM] | AUC (PHA-793887) | IC50 (PHA-793887) [µM] | IC50 (Epothilone B) [µM]
1 | LB647-SCLC (small cell lung carcinoma, semi-adherent) | 0.898 | > 20 | 0.566 | 0.944 | > 10 | 0.983 | > 10 | 0.931 | > 2 |  |  |  |  |  |  | 
2 | MOLT-13 (T-cell lymphoblastic leukaemia, suspension) | 0.928 | > 20 |  | 0.989 | > 10 | 0.983 | > 10 | 0.989 | > 2 | 0.827 | 10.3 | 0.754 | 6.02 | 0.334 | 0.236 | 
3 | NB12 (neuroblastoma, adherent) | 0.977 | > 20 | 0.87 | 0.972 | > 10 | 0.954 | > 10 |  |  | 0.967 | > 20 | 0.869 | > 20 | 0.944 | > 10.2 | > 0.032
4 | NB17 (neuroblastoma, adherent) | 0.979 | > 20 |  | 0.984 | > 10 | 0.975 | > 10 | 0.957 | > 2 | 0.908 | > 20 | 0.842 | 17.3 | 0.722 | 3.04 | 
5 | NCI-H23 (lung adenocarcinoma, adherent) | 0.745 | 6.25 | 0.866 | 0.988 | > 10 | 0.986 | > 10 |  |  | 0.976 | > 20 | 0.923 | > 20 | 0.958 | > 10.2 | 0.028
6 | NCI-H128 (small cell lung carcinoma, suspension) | 0.896 | > 20 |  |  |  |  |  | 0.975 | > 2 |  |  |  |  |  |  | 
7 | NCI-H748 (small cell lung carcinoma, suspension) | 0.858 | > 20 | 0.864 |  |  |  |  | 0.972 | > 2 | 0.952 | > 20 | 0.875 | > 20 | 0.619 | 1.49 | > 0.032
8 | NCI-H1963 (small cell lung carcinoma, suspension) | 0.886 | 17.1 | 0.76 |  |  |  |  | 0.991 | > 2 | 0.989 | > 20 | 0.951 | > 20 |  |  | 0.00993
9 | NCI-H2171 (small cell lung carcinoma, suspension) | 0.879 | 15.9 | 0.753 |  |  |  |  | 0.981 | > 2 | 0.987 | > 20 | 0.867 | 14.2 | 0.729 | 2.57 | 0.00941
10 | NCI-H2196 (small cell lung carcinoma, adherent) | 0.928 | > 20 | 0.925 |  |  |  |  | 0.986 | > 2 | 0.986 | > 20 | 0.898 | > 20 | 0.899 | > 10.2 | > 0.032
11 | NCI-H2227 (small cell lung carcinoma, semi-adherent) | 0.975 | > 20 | 0.963 | 0.962 | > 10 | 0.929 | > 10 |  |  | 0.785 | 9.78 | 0.57 | 2 | 0.726 | 3.1 | > 0.032
12 | NK-92MI (lymphoid neoplasm, suspension) | 0.959 | > 20 | 0.722 |  |  |  |  | 0.94 | > 2 |  |  |  |  |  |  | 0.00807
13 | RC-K8 (B-cell lymphoma, suspension) | 0.962 | > 20 | 0.951 | 0.972 | > 10 | 0.972 | > 10 |  |  | 0.991 | > 20 | 0.947 | > 20 | 0.956 | > 10.2 | > 0.032
14 | RL95-2 (endometrium, adherent) | 0.844 | 14.1 |  |  |  | 0.97 | > 10 | 0.865 | 1.74 | 0.917 | > 20 | 0.664 | 3.56 | 0.936 | > 10.2 | 
15 | SCC-3 (B-cell lymphoma, suspension) | 0.525 | 1.44 | 0.83 |  |  |  |  | 0.994 | > 2 | 0.983 | > 20 | 0.995 | > 20 | 0.328 | 0.246 | 0.013
16 | SCC-15 (head and neck, adherent) |  |  | 0.666 | 0.923 | > 10 | 0.911 | > 10 | 0.978 | > 2 | 0.965 | > 20 | 0.866 | > 20 | 0.91 | > 10.2 | 0.00681
17 | SCH (stomach, adherent) | 0.985 | > 20 | 0.982 | 0.911 | > 10 | 0.893 | > 10 |  |  | 0.988 | > 20 | 0.988 | > 20 | 0.879 | > 10.2 | > 0.032
18 | SKM-1 (haematopoietic neoplasm, suspension) | 0.95 | > 20 |  | 0.957 | > 10 | 0.982 | > 10 | 0.91 | > 2 |  |  |  |  |  |  | 
19 | SNU-C2B (large intestine, adherent) |  |  | 0.627 | 0.972 | > 10 | 0.97 | > 10 | 0.883 | > 2 | 0.911 | > 20 | 0.926 | > 20 | 0.735 | 3.79 | 0.00501
20 | TGBC24TKB (biliary tract, adherent) |  |  | 0.58 |  |  | 0.989 | > 10 | 0.834 | 1.19 | 0.975 | > 20 | 0.925 | > 20 | 0.989 | > 10.2 | 0.00327
21 | TK (B-cell lymphoma, suspension) | 0.65 | 3.12 | 0.619 | 0.96 | > 10 | 0.977 | > 10 |  |  | 0.89 | 19.5 | 0.74 | 5.62 | 0.941 | > 10.2 | 0.00412
